# Data as given in the supplement of paper PMC4604168 (melanoma cell lines).
# Some of the results follow. Repeats are few or missing, and single values can be far off.
# Legend:
# Assay in all cases: cell count relative to DMSO control; melanoma cells; higher = more viable cells
# Conditions in all cases: library dose: low library concentration; 72 h
# MeWo = test system: MeWo
# RPMI7951 = test system: RPMI7951
# RVH-421 = test system: RVH-421
# SkMel28 = test system: SkMel28
# SkMel2 = test system: SkMel2
# SkMel30 = test system: SkMel30
# SkMel5 = test system: SkMel5
# UACC257 = test system: UACC257
# UACC62 = test system: UACC62
# MZ2-MEL = test system: MZ2-MEL
# 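Note: cell number obtained by counting DAPI-stained nuclei in high-throughput microscope images with image analysis software, screen run in 1,536-well plates.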
Compound,cell count (MeWo),cell count (RPMI7951),cell count (RVH-421),cell count (SkMel28),cell count (SkMel2),cell count (SkMel30),cell count (SkMel5),cell count (UACC257),cell count (UACC62),cell count (MZ2-MEL)
"CC1(C)NC(=O)N(c2ccc([N+](=O)[O-])c(C(F)(F)F)c2)C1=O [nilutamide] + CO[C@@H]1[C@H](N(C)C(=O)c2ccccc2)C[C@H]2O[C@]1(C)n1c3ccccc3c3c4c(c5c6ccccc6n2c5c31)C(=O)NC4 [Midostaurin] (first compound 1 µM, partner dose 0.08 µM)",97.2%,114%,108%,94.1%,102%,106%,92.3%,85.5%,112%,
"C[C@@H]1CCN(C(=O)CC#N)C[C@@H]1N(C)c1ncnc2[nH]ccc12 + c1cc(-c2cnn3cc(-c4ccc(OCCN5CCCCC5)cc4)cnc23)ccn1 [Dorsomorphin] (first compound 1 µM, partner dose 0.4 µM)",99.2%,120%,129%,110%,,115%,96%,98.2%,122%,100%
"CC1(C)NC(=O)N(c2ccc([N+](=O)[O-])c(C(F)(F)F)c2)C1=O [nilutamide] + c1cc(-c2cnn3cc(-c4ccc(OCCN5CCCCC5)cc4)cnc23)ccn1 [Dorsomorphin] (first compound 1 µM, partner dose 0.4 µM)",97.8%,98.3%,110%,75.3%,,100%,85.8%,90.5%,101%,97%
"CC1(C)NC(=O)N(c2ccc([N+](=O)[O-])c(C(F)(F)F)c2)C1=O [nilutamide] + N#Cc1c(O)c2c(-c3ccc(-c4ccccc4O)cc3)csc2[nH]c1=O [A769662] (first compound 1 µM, partner dose 2 µM)",105%,113%,82.8%,69.1%,,102%,92.2%,84.7%,116%,111%
"COc1cc(Nc2ncc(F)c(Nc3ccc4c(n3)NC(=O)C(C)(C)O4)n2)cc(OC)c1OC [Tamatinib] + Oc1cc(-c2nc(-c3ccccc3)[nH]c2-c2ccncc2)ccc1Cl [L779450] (first compound 0.4 µM, partner dose 0.2 µM)",93.4%,65.5%,80.2%,53.1%,,88.8%,80.9%,71.1%,65.8%,79.6%
"O=c1[nH]nc(Sc2ncc([N+](=O)[O-])s2)n1-c1ccc2c(c1)OCCO2 + OCc1c[nH]c2ccccc12 [Indole-3-carbinol] (first compound 0.2 µM, partner dose 0.8 µM)",94.3%,97.8%,94.9%,103%,,93%,,,105%,
"O=C(O)c1ccc(-c2c[nH]c3ncc(-c4ccccc4)cc23)cc1C1CCCC1 + COC(=O)c1sccc1S(=O)(=O)Nc1ccc(Nc2ccccc2)cc1OC [GSK0660] (first compound 0.16 µM, partner dose 1 µM)",83.6%,94.6%,95.3%,84.9%,,102%,86.2%,101%,85.8%,92.1%
"O=c1[nH]nc(Sc2ncc([N+](=O)[O-])s2)n1-c1ccc2c(c1)OCCO2 + CN(c1ncccc1CNc1nc(Nc2ccc3c(c2)CC(=O)N3)ncc1C(F)(F)F)S(C)(=O)=O [PF562271] (first compound 0.2 µM, partner dose 0.08 µM)",110%,87.5%,94.5%,71.4%,,106%,,,81%,83.1%
"O=C(Nc1cccc(Cl)c1)Nc1ncc(CCNc2ncnc3ccsc23)s1 + COC(=O)c1sccc1S(=O)(=O)Nc1ccc(Nc2ccccc2)cc1OC [GSK0660] (first compound 0.0008 µM, partner dose 1 µM)",93.2%,104%,88.8%,99%,,107%,98.4%,106%,127%,92.7%
"CC1(C)NC(=O)N(c2ccc([N+](=O)[O-])c(C(F)(F)F)c2)C1=O [nilutamide] + Oc1cc(-c2nc(-c3ccccc3)[nH]c2-c2ccncc2)ccc1Cl [L779450] (first compound 1 µM, partner dose 0.2 µM)",96.2%,90%,98.3%,76.4%,,95.3%,91.5%,87.5%,77%,78%
"O=c1[nH]nc(Sc2ncc([N+](=O)[O-])s2)n1-c1ccc2c(c1)OCCO2 + Nc1nc(F)nc2c1ncn2[C@@H]1O[C@H](CO)[C@@H](O)[C@@H]1O [fludarabine] (first compound 0.2 µM, partner dose 0.2 µM)",41.2%,101%,91.9%,72.5%,8.44%,21.9%,,,72.3%,
"Cn1cncc1[C@@](N)(c1ccc(Cl)cc1)c1ccc2c(c1)c(-c1cccc(Cl)c1)cc(=O)n2C [tipifarnib] + N#Cc1c(O)c2c(-c3ccc(-c4ccccc4O)cc3)csc2[nH]c1=O [A769662] (first compound 0.01 µM, partner dose 2 µM)",102%,91.4%,91.1%,101%,,123%,92.9%,73.3%,80.2%,
"COc1cc(Nc2ncc(F)c(Nc3ccc4c(n3)NC(=O)C(C)(C)O4)n2)cc(OC)c1OC [Tamatinib] + CCCCCCCCCCCC1=C(O)C(=O)C=C(O)C1=O [Embelin] (first compound 0.4 µM, partner dose 1.2 µM)",92.2%,93.8%,102%,79.7%,,50.8%,97.2%,92.7%,86.2%,93.3%
"CC1(C)NC(=O)N(c2ccc([N+](=O)[O-])c(C(F)(F)F)c2)C1=O [nilutamide] + COc1cc2ncnc(Nc3ccc(Oc4ccccc4)cc3)c2cc1OC [SrcI1] (first compound 1 µM, partner dose 2 µM)",119%,94.1%,98.8%,86.2%,,109%,102%,101%,121%,93.4%
"Cn1cncc1[C@@](N)(c1ccc(Cl)cc1)c1ccc2c(c1)c(-c1cccc(Cl)c1)cc(=O)n2C [tipifarnib] + O=C1NC(=O)/C(=C/c2ccc(-c3ccc(F)cc3O)o2)S1 [AS252424] (first compound 0.01 µM, partner dose 1 µM)",86.7%,84.5%,82.3%,87.8%,,91.8%,105%,71.8%,79.3%,99.2%
"O=c1[nH]nc(Sc2ncc([N+](=O)[O-])s2)n1-c1ccc2c(c1)OCCO2 + CS(=O)(=O)c1ccc(C(=O)Nc2ccc(Cl)c(-c3ccccn3)c2)c(Cl)c1 [vismodegib] (first compound 0.2 µM, partner dose 1 µM)",105%,97%,101%,109%,,97.9%,,,99.3%,
"O=c1[nH]nc(Sc2ncc([N+](=O)[O-])s2)n1-c1ccc2c(c1)OCCO2 + CS(=O)(=O)CCNCc1ccc(-c2ccc3ncnc(Nc4ccc(OCc5cccc(F)c5)c(Cl)c4)c3c2)o1 [lapatinib] (first compound 0.2 µM, partner dose 0.8 µM)",97.3%,116%,98.8%,120%,105%,93.8%,,,98.5%,
"COc1cc(Nc2ncc(F)c(Nc3ccc4c(n3)NC(=O)C(C)(C)O4)n2)cc(OC)c1OC [Tamatinib] + O=c1cc(-c2cccc3c2Sc2ccccc2S3)oc(N2CCOCC2)c1 [KU55933] (first compound 0.4 µM, partner dose 1 µM)",93.6%,89.4%,105%,93.5%,,105%,97.3%,54.9%,102%,103%
"O=c1[nH]nc(Sc2ncc([N+](=O)[O-])s2)n1-c1ccc2c(c1)OCCO2 + Cc1cc([N+](=O)[O-])ccc1NS(=O)(=O)c1cc(Cl)ccc1Cl [FH535] (first compound 0.2 µM, partner dose 1 µM)",97.8%,102%,87.5%,96.2%,,91.5%,94.7%,107%,98%,
"Cn1cncc1[C@@](N)(c1ccc(Cl)cc1)c1ccc2c(c1)c(-c1cccc(Cl)c1)cc(=O)n2C [tipifarnib] + O=S(=O)(c1ccccc1)N(CC(F)(F)F)c1ccc(C(O)(C(F)(F)F)C(F)(F)F)cc1 [T0901317] (first compound 0.01 µM, partner dose 1.4 µM)",80.4%,89.8%,100%,83.8%,,116%,91%,75%,78.3%,107%
